Results from PMC4245953, “Hug1 is an intrinsically disordered protein that inhibits ribonucleotide reductase activity by directly binding Rnr2 subunit” (Nucleic Acids Research, 2014).
Numbering of substitutions follows the chain as printed. Results are given in words; binding and its absence hold for the method and conditions named. For some of these results: Binding seen in cells or lysates may run through a third protein. Some entries that bind do so weakly or less than the wild type. Sequences can lack the tags named with a protein. Each block holds one binder with its values, some of them ahead of it.

Key:
[1] = molecular target: T1, (His)6-Rnr2 (S. cerevisiae) (UniProt P09938); assay: co-purification; (His)6-Rnr2 and Rnr4 produced in E. coli, held on Ni-NTA agarose, then anion exchange (Tris 50 mM pH 8, NaCl gradient)
T1 sequence: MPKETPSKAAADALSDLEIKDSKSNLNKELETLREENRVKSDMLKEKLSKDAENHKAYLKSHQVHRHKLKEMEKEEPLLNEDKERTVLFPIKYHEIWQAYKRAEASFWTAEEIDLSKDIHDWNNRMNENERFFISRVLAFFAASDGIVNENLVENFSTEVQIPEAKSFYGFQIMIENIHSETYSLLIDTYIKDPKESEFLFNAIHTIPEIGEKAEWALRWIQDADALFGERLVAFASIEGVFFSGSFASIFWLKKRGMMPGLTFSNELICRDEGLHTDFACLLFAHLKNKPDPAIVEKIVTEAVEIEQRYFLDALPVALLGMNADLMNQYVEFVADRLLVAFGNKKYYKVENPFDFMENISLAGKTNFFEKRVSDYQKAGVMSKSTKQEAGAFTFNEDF

[2] = molecular target: T2, Rnr2 fused to Gal4 activating domain (S. cerevisiae) (UniProt P09938); assay: two-hybrid; data not shown; Rnr2 and Rnr4 as two-hybrid fusions against themselves and each other
T2 sequence: T1 sequence

[3] = molecular target: Rnr4 fused to Gal4 activating domain (S. cerevisiae) (UniProt P49723); assay: as above
[4] = molecular target: T3, Hug1 fused to Gal4 DNA-binding domain (S. cerevisiae) (UniProt Q6Q5K6); assay: two-hybrid; Hug1 (wild type or mutant) fused to Gal4-DBD (bait, pGBT9), Rnr2, Rnr4 or Dna2 fused to Gal4-AD (prey, pACT2); diploids; HIS3 reporter on 3AT and LacZ reporter with X-gal
T3 sequence: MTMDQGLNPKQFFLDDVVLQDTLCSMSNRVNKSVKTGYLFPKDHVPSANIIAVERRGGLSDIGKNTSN

[5] = molecular target: T4, Hug1 G37A Y38A (M2) fused to Gal4 DNA-binding domain (S. cerevisiae) (UniProt Q6Q5K6); assay: as above
T4 sequence: T3 sequence with G37A, Y38A

[6] = molecular target: T5, Hug1 I50E I51E (M5), two-hybrid fusion (S. cerevisiae) (UniProt Q6Q5K6); assay: as above
T5 sequence: T3 sequence with I50E, I51E

[7] = molecular target: T6, Hug1 N31A K32A S33A (M1) fused to Gal4 DNA-binding domain (S. cerevisiae) (UniProt Q6Q5K6); assay: as above
T6 sequence: T3 sequence with N31A, K32A, S33A

[8] = molecular target: T7, Hug1 R29A (M3) fused to Gal4 DNA-binding domain (S. cerevisiae) (UniProt Q6Q5K6); assay: as above
T7 sequence: T3 sequence with R29A

[9] = molecular target: T8, Hug1 Y38E L39E (M4), two-hybrid fusion (S. cerevisiae) (UniProt Q6Q5K6); assay: as above
T8 sequence: T3 sequence with Y38E, L39E

[10] = molecular target: T9, (His)6-GST-TEV site-Hug1 (S. cerevisiae) (UniProt Q6Q5K6); assay: pull-down; His6-GST-Hug1 from E. coli soluble extract on Glutathione-agarose; His6-Rnr2 or His6-Rnr2-Rnr4 added; elution with GSH; western blot with anti-His
T9 sequence: T3 sequence

B3: Rnr2 fused to Gal4 activating domain (protein, UniProt P09938 1-399)
chain: T1 sequence
binding [2]: binds | binding [5]: no binding | binding [6]: no binding | binding [7]: binds | binding [8]: no binding | binding [9]: no binding | binding [4]: binds

B4: (His)6-Rnr2-Rnr4 complex (complex, UniProt P09938 1-399; P49723 1-345)
chain 1: T1 sequence
chain 2: MEAHNQFLKTFQKERHDMKEAEKDEILLMENSRRFVMFPIKYHEIWAAYKKVEASFWTAEEIELAKDTEDFQKLTDDQKTYIGNLLALSISSDNLVNKYLIENFSAQLQNPEGKSFYGFQIMMENIYSEVYSMMVDAFFKDPKNIPLFKEIANLPEVKHKAAFIERWISNDDSLYAERLVAFAAKEGIFQAGNYASMFWLTDKKIMPGLAMANRNICRDRGAYTDFSCLLFAHLRTKPNPKIIEKIITEAVEIEKEYYSNSLPVEKFGMDLKSIHTYIEFVADGLLQGFGNEKYYNAVNPFEFMEDVATAGKTTFFEKKVSDYQKASDMSKSATPSKEINFDDDF
binding [10]: binds

B5: (His)6-Rnr2 (protein, UniProt P09938 1-399)
chain: T1 sequence
binding [10]: binds

Other lines, results leading:

binding [1]: binds
B1: Rnr4 (recombinant, co-expressed with (His)6-Rnr2) (protein, UniProt P49723 1-345)
chain: B4 chain 2

binding [2]: binds | binding [3]: binds | binding [4]: no binding
B2: Rnr4 fused to Gal4 activating domain (protein, UniProt P49723 1-345)
chain: B4 chain 2
